# Laboratory results published in paper PMC4336329 (PLoS ONE, 2015).
# The campaign covered roughly 310,000 compounds. About 2,200 (0.71%) showed an effect of 50% or more. Effects have a minus sign here. Some of the results follow.
# Biological target: human ether-à-go-go-related gene (hERG) potassium channel (human, UniProt Q12809)
# Assay: primary screen, population patch clamp on CHO cells stably expressing hERG
# human ether-à-go-go-related gene (hERG) potassium channel, sequence (Q12809 whole entry, looked up): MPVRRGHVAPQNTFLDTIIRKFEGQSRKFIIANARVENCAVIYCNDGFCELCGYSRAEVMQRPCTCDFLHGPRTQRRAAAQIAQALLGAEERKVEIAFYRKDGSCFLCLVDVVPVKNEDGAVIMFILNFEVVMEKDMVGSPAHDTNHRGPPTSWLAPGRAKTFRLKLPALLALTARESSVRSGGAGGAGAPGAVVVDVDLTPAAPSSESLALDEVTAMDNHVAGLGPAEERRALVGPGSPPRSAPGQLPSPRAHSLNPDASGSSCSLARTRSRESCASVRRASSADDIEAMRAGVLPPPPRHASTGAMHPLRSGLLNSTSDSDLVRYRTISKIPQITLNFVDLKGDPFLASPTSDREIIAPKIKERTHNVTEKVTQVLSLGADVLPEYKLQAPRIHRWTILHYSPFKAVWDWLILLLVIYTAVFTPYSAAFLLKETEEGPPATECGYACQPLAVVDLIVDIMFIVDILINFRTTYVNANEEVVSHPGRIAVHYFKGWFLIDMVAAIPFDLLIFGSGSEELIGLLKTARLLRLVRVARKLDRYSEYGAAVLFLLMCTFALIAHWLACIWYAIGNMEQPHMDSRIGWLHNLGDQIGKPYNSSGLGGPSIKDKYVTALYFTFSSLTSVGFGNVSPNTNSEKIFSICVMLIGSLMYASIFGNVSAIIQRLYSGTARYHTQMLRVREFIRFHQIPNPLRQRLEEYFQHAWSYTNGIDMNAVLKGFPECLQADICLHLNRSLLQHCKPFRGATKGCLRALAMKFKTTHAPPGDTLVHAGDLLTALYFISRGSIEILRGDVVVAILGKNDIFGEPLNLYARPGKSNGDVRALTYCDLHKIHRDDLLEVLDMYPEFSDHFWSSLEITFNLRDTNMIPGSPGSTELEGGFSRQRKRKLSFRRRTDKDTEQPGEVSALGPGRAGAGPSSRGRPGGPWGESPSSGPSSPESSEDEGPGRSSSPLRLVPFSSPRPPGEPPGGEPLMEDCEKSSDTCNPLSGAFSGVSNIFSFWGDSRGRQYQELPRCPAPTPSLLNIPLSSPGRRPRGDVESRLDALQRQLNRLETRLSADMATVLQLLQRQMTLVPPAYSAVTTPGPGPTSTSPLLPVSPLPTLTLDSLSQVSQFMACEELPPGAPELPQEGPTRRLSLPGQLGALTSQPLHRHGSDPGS
row,SMILES,"hERG current change (%, negative = inhibition) at 1uM"
1,COc1ccc(S(=O)(=O)Nc2ccc3c(c2)n(C)c(=O)n3C)cc1C,6.57%
2,Cc1sc2nc(SCC(=O)NCCO)n(-c3ccccc3)c(=O)c2c1C,3.19%
3,NC(=O)CC(NC(=O)Cc1cccc2ccccc12)c1ccc(NCCOc2ccccc2)c([N+](=O)[O-])c1 (stereo not drawn),7.29%
4,O=C(CN(Cc1cccs1)C(=O)CNS(=O)(=O)c1ccc(F)cc1)NCC1CCCO1 (stereo not drawn),11.9%
5,Cc1cc2n(n1)C(c1ccco1)Nc1ccccc1-2 (stereo not drawn),-1.3%
6,O=C(CNC(=O)c1ccc(Cl)cc1)NCCCn1ccnc1,16.9%
7,CCCNC(=O)CN(CCc1ccccc1)S(C)(=O)=O,8.53%
8,COC(=O)Nc1nnc(Cc2ccc(OC)cc2)s1,16.1%
9,CCOc1cccc(-c2c(C(=O)N/N=C/c3cccnc3)nnn2-c2nonc2N)c1,-15.3%
10,CCC(=O)Nc1ccc(C(=O)OCc2ccc(Cl)c(Cl)c2)cc1,2.38%
11,CC1CCCCN1C(=O)CN1C(=O)CSc2ccc(S(=O)(=O)N3CCOCC3)cc21 (stereo not drawn),12.4%
12,COc1ccc(-c2csc(Nc3ccccn3)n2)cc1OC,13.6%
13,COc1cc(C(=O)OCC(=O)N(C)c2ccccc2)cc(OC)c1OC,7.74%
14,CN(C)S(=O)(=O)c1ccc(C(=O)NCC(=O)Nc2ccc(F)c(F)c2)cc1,6.33%
15,COCc1nnc(NC(=O)c2ccc(S(=O)(=O)N3CCCC3)cc2)o1,8.06%
16,COc1ccc(Br)cc1CNC(=O)C1CCN(S(=O)(=O)N2CCCCC2)CC1,11.7%
17,Nc1ccc(S(=O)(=O)Nc2nccc(/C=C/c3ccc(Cl)cc3Cl)n2)cc1,11.1%
18,CC1=C(C(N)=O)C(c2ccc3c(c2)OCO3)n2nc(-c3cccc(C)c3)nc2N1 (stereo not drawn),-9.71%
19,CCCS(=O)(=O)c1snnc1C,9.83%
20,Cc1ccccc1N(CC(=O)N1CCCC1)S(=O)(=O)c1ccc(Cl)cc1,0.152%
21,CCOC(=O)c1ccc(Oc2nc(OC)nc(N(C)C)n2)cc1,10.8%
22,Cc1cc(C)c2c(=O)c(/C=C3\NC(=S)NC3=O)coc2c1,14.4%
23,CCOC(=O)/C=C1\SCC(=O)N1CC(=O)NCCc1ccc(F)cc1,10.8%

row,SMILES,"hERG current change (%, negative = inhibition) at 1uM"
1,COc1ccc2[nH]cc(CCNC(=O)Cc3c(F)cccc3Cl)c2c1,9.3%
2,COc1ccc(C(=O)Nn2cnnc2)cc1,4.91%
3,COc1cc(/C=N/NC(=O)c2cc(O)cc(O)c2)ccc1OC(=O)c1ccccc1,17.4%
4,CCOC(=O)c1ccc(-n2ccnc2)c(NC(=O)c2cccc(Br)c2)c1,-7.03%
5,CCC(=O)N1CCN(c2ccc(NC(=O)c3ccc(Br)o3)cc2)CC1,-1.62%
6,O=c1c(-c2ccc(Oc3ccccc3)cc2)[n+]([O-])c2ccccc2n1OCc1ccccn1,-16.6%
7,Cc1ccc(S(=O)(=O)CCNC(=O)Cc2ccc(Cl)cc2)cc1,6.08%
8,S=C(NCCCN1CCOCC1)N1CCOCC1,12.8%
9,COc1ccc(OC)c(C(=O)c2ccccc2)c1,13.9%
10,Cc1nc2c3cc(F)ccc3n(Cc3ccccc3F)c2s1,13%
11,COc1ccc(OCc2cc(C(=O)NC3Cc4ccccc4C3)no2)c(Cl)c1,8.09%
12,CCCCSc1cc(=O)[nH]c(N)n1,14.8%
13,CCN(CC(=O)Nc1ccc(NC(C)=O)cc1)C(=O)CSCC(=O)Nc1ccc(C)cc1,9.07%
14,CCOC(=O)Cc1csc(NC(=O)/C=C/c2ccc(Cl)cc2)n1,1.25%
15,O=C(Nc1cccn(Cc2c(Cl)cccc2Cl)c1=O)c1ccc(Cl)cc1Cl,8.72%
16,CCNc1ccccc(C(=O)/C=C/c2ccc3c(c2)OCO3)c1=O,17.8%
17,CC(C)Cc1nnc(NC(=O)CCC(=O)N2CCN(CCOC(c3ccccc3)c3ccccc3)CC2)s1,6.29%
18,CCc1ccc(C(=O)COC(=O)CNC(=O)Cc2ccccc2)cc1,8.13%
19,CC(C)c1ccc(S(=O)(=O)NC2CCS(=O)(=O)C2)cc1 (stereo not drawn),5.19%
20,CCSc1nc2sccc2c(=O)n1-c1ccccc1,14.6%
21,CCCN1C(=O)/C(=C/c2ccncc2)SC1=S,10.4%
22,COc1ccc(CCC(=O)c2ccc(OC)cc2)cc1,8.67%
23,CCC(=O)N1CCN(c2ccc(NC(=O)COc3ccc(C)cc3C)cc2)CC1,12.5%

row,SMILES,"hERG current change (%, negative = inhibition) at 1uM"
1,COc1cc(OC)cc(C(=O)N2CCN(Cc3ccccc3Br)CC2)c1,9.25%
2,CC(C)Oc1ccc(N2CC(C(=O)Nc3ccccc3C(=O)NC3CC3)CC2=O)cc1 (stereo not drawn),-37.4%
3,CCn1c(COc2ccccc2)nnc1SCC(=O)CC(=O)Nc1ccccc1OC,6.86%
4,COc1ccc(S(=O)(=O)N2CCC(C(=O)Nc3c(F)cccc3F)CC2)cc1,17.6%
5,CC1(OC(=O)c2cccs2)C(=O)C=C2C=C(c3ccsc3)OC=C2C1=O (stereo not drawn),5.5%
6,O=C1Nc2ccc([N+](=O)[O-])cc2C1(O)N1CCCCC1 (stereo not drawn),2.11%
7,COc1ccccc1OCCOCCOc1ccccc1Cl,14.8%
8,O=C(O)c1ccc(/C=N/n2cc(-c3ccccc3)[nH]c2=S)cc1,9.78%
9,Cn1c(SCC(=O)NC(=O)NCc2ccco2)nnc1C(F)(F)F,2.54%
10,Oc1ccc(N2CCN(Cc3nc4ccccc4[nH]3)CC2)cc1,9.24%
11,Cc1ccc2oc(=O)c3cc(C(=O)NCCCN4CC(C)CC(C)C4)sc3c2c1 (stereo not drawn),-13%
12,COc1cccc(O)c1CN1CCC(Oc2ccc(C(=O)NCc3ccccn3)cc2)CC1,3.91%
13,O=C(N/N=C/C=C\c1ccco1)c1cccnc1,11.4%
14,Clc1ccccc1C1=CC(c2ccco2)n2ncnc2N1 (stereo not drawn),0.281%
15,CCOc1ccc(/C=C/C(=O)N(C)CC(=O)Nc2cccc(F)c2)cc1OCC,15.5%
16,CSc1ccccc1NC(=O)CN(C)CC(=O)NCc1ccccc1,2.82%
17,CC1CCN(C(=O)COC(=O)c2cc(=O)[nH]c3ccccc23)CC1,11.2%
18,CCOc1ccccc1C(=O)N(C)CC(=O)Nc1ccc(OC)cc1,6.82%
19,O=C(c1ccc2c(=O)n(C3CCCC3)c(=S)[nH]c2c1)N1CCc2ccccc21,10.8%
20,O=C(CSCc1ccc(Br)cc1)Nc1ccccc1C(=O)N1CCOCC1,10.7%
21,COCCSc1ccccc1C(=O)NCc1ccco1,-0.155%
22,Cc1cc(C)n2cc(COc3ccc4ccccc4c3)nc2n1,-4.92%
23,Cc1occc1-c1nnc(SCC(=O)N2CCOCC2)n1CCc1ccccc1,0.77%

row,SMILES,"hERG current change (%, negative = inhibition) at 1uM"
1,COc1ccc(/C=C/C(=O)NCc2nc3ccccc3[nH]2)cc1OC,6.86%
2,COCCN1CCN(C(=O)c2ccc3nc(Cc4ccccc4F)oc3c2)CC1,2%
3,Cc1ccc(N(CCC#N)C(=O)CSc2ccc3c(c2)OCCO3)cc1,2.75%
4,COc1ccccc1N1C(=O)CC(Sc2n[nH]c(-c3cccc(C)c3)n2)C1=O (stereo not drawn),8.37%
5,O=C(CN(Cc1ccccc1F)S(=O)(=O)c1ccc(Cl)cc1)NCCC1=CCCCC1,13%
6,CCC(C)c1ccc(NC(=S)NC2CCN(Cc3ccccc3)CC2)cc1 (stereo not drawn),8.05%
7,O=C(Nc1ccc(C(F)(F)F)cc1)c1ccccc1,7.52%
8,COc1ccc(CCNC(=O)CN2CCN(Cc3ccc(F)cc3)C2=O)cc1OC,13.9%
9,Cc1ccc(C(=O)CC2(O)C(=O)N(C)c3ccccc32)s1 (stereo not drawn),11.3%
10,COCCCNC(=O)CSc1nc2ccccc2c(=O)n1CCCN1CCCCC1,15.3%
11,CSCC(=O)N1CCCC(CNC(=O)c2ccccc2Cl)C1 (stereo not drawn),12.5%
12,Clc1ccccc1CSc1nnc(-c2ccco2)c(-c2ccco2)n1,6.19%
13,O=C(Nc1cccc(S(=O)(=O)N2CCOCC2)c1)c1ccc(N2CCCC2=O)cc1,6.91%
14,O=C(Nc1ccncc1)c1ccc(Cl)cc1,9.64%
15,NC(=O)CCC(NC(=S)Nc1ccccc1)C(=O)O (stereo not drawn),11.5%
16,COc1ccc(CCNC(=O)CSCc2ccc(F)cc2)cc1OC,5.73%
17,Cc1ccc2nc(-c3ccc(NC(=O)CN4CCN(C(=O)c5ccco5)CC4)cc3)sc2c1,13.1%
18,O=C(O)C1CCCN1C(=O)Nc1ccc(F)cc1 (stereo not drawn),0.144%
19,Cn1ccnc1Sc1cc(Cl)ccc1[N+](=O)[O-],15.8%
20,Cc1ccccc1C(=O)NCC(=O)OC(C)C(=O)Nc1cccc(S(=O)(=O)N2CCOCC2)c1 (stereo not drawn),14.4%
21,CC(=O)NS(=O)(=O)c1ccc(NC(=O)CSc2ccccc2)cc1,10.5%
